# ± gives the uncertainty stated by the source. The full ranking holds about 9,900 compounds; the median of “viability index relative to DMSO control” is about 1, and the lowest 2% start at about 0.85. The list shows a part of the results.
# Tested on: Plasmodium falciparum NF54 stage V gametocytes
# Assay: viability index relative to DMSO control (fraction); higher = less gametocyte killing
# Conditions: 2.5 µM, library set: Broad Institute DOS, incubation time: 72 h
# Procedure, shortened: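 Gametocytes (P. falciparum NF54, stage V) were treated with compound at 2.5 µM for 72 hr at 37°C in low oxygen, in serum-free medium at 0.75% gametocytemia and 1.25% hematocrit. Counts of 20–70 µm2 red particles, taken from one field per well after MitoTracker Red CMXRos with saponin, were divided by the plate mean of solvent-only wells. This ratio is the viability index.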
row,Compound,viability index
1,C[C@H]1CN([C@@H](C)CO)C(=O)CCCn2nncc2CO[C@@H]1CN(C)Cc1ccc(C(=O)Nc2ccccc2N)cc1,1.01 ± 0.052
2,COc1ccc(NC(=O)N2C[C@@H](O)COC[C@H]3O[C@@H](CC(=O)N4CCCCC4)CC[C@@H]32)cc1,0.989 ± 0.018
3,CCC(=O)N1C[C@@H](C)[C@@H](OC)CN(C)C(=O)c2ccc(NC(=O)CC(F)(F)F)cc2OC[C@H]1C,1.02 ± 0.08
4,N#C[C@H]1[C@@H](c2ccc(C3=CCCCC3)cc2)[C@@H](CO)N1S(=O)(=O)c1ccccc1,1.07 ± 0.03
5,Cc1noc(C)c1NC(=O)N(C)C[C@H]1OCc2cnnn2CCCC(=O)N([C@H](C)CO)C[C@H]1C,1.028 ± 0.003
6,C[C@@H]1CN([C@@H](C)CO)C(=O)CCCn2cc(nn2)CO[C@H]1CN(C)C(=O)Nc1cccc(C(F)(F)F)c1,0.9906 ± 0.0042
7,CN1CCN(C(=O)C[C@H]2C[C@H]3c4cc(NS(C)(=O)=O)ccc4O[C@H]3[C@@H](CO)O2)CC1,1.1 ± 0.042
8,O=C1NCCOCn2nncc2CC[C@@H]1Cc1cccc(Cl)c1,1.06 ± 0.078
9,C[C@H](NC(=O)C[C@@H]1CC[C@@H]2[C@H](COC[C@H](O)CN2Cc2ccc(C(F)(F)F)cc2)O1)c1ccccc1,1.08 ± 0.021
10,CC(C)NC(=O)N1[C@H](CO)[C@@H](c2ccccc2)C12CN(Cc1cc(F)cc(F)c1)C2,1.04 ± 0.063
11,O=C(CN1CCOCC1)N1CCCCN2[C@@H](CO)[C@H](c3ccc(Br)cc3)[C@@H]2C1,1.03 ± 0.057
12,C[C@@H]1CN([C@H](C)CO)C(=O)c2ccccc2-c2ccccc2CO[C@H]1CN(C)C(=O)NC1CCCCC1,0.9899 ± 0.0044
13,CC(C)[C@@H]1C/C=C/C[C@@H](C)Oc2ccccc2C(=O)N(C)[C@H](Cc2ccccc2)C(=O)N1.CC(C)[C@@H]1C/C=C\C[C@@H](C)Oc2ccccc2C(=O)N(C)[C@H](Cc2ccccc2)C(=O)N1,0.945 ± 0.053
14,C[C@@H]1CCCCO[C@H](CN(C)S(=O)(=O)c2ccc(F)cc2)[C@@H](C)CN([C@H](C)CO)C(=O)c2cc(N(C)C)ccc2O1,1.11 ± 0.12
15,O=C([C@H]1[C@H](CO)[C@H]2Cn3c(ccc(C4=CCCCC4)c3=O)[C@@H]1N2)N1CCC(Cc2ccccc2)CC1,1.08 ± 0.06
16,CN1C(=O)c2cc(NC(=O)Cc3cccs3)ccc2OC[C@@H]2O[C@@H](CC(=O)NCCCN3CCOCC3)CC[C@H]21,1.08 ± 0.023
17,O=S(=O)(c1ccccc1F)N1CC[C@H]2[C@H](CO)Nc3ccc(C4=CCCCC4)cc3[C@H]21,1.02 ± 0.084
18,O=C(C[C@H]1C[C@H]2c3cc(NC(=O)C4CCOCC4)ccc3O[C@H]2[C@H](CO)O1)NCc1cccnc1,1.086 ± 0.0019
19,CN1C(=O)c2cc(NC(=O)Nc3ccccc3Cl)ccc2OC[C@@H]2O[C@@H](CC(=O)NCCCN3CCOCC3)CC[C@@H]21,1.16 ± 0.13
